Data from ChEMBL document CHEMBL4888484, “Replenishing the malaria drug discovery pipeline: Screening and hit evaluation of the MMV Hit Generation Library 1 (HGL1) against asexual blood stage Plasmodium falciparum ,using a nano luciferase reporter read-out” (2022).
In all, about 150,000 compounds went through this assay and about 540 (0.36%) showed an effect of 50% or more. The list shows a part of the results.

Test system: Plasmodium falciparum
Assay: Primary screen in NF54 nanoGlo assay, in single point, at 2uM, 72h; a lower Z score goes with more inhibition
Type: functional, Erythrocyte
Details: timepoint 72 hour

Structure (SMILES)	% Inhibition [%]	Z score
CCn1ncnc1CN[C@H]1CCc2cc(F)c(Cl)cc21	-2	0.39
CC(C)c1nnc(C2CCN(C(=O)Cc3c[nH]c4ccccc34)CC2)o1	12	-1.6
Clc1cccc(-c2noc([C@H]3CC34CCN(Cc3nc(C5CC5)no3)CC4)n2)c1	-1	0.17
COc1ccc(CCc2nnc(NC(=O)Cc3c(C)noc3C)[nH]2)cc1OC	49	-6.37
O=C(Nc1cccc(-c2nnc3n2CCCC3)c1)c1ccccn1	-8	1.29
Cc1csc(Cn2ccnc2-c2cc3n(n2)CCCNC3)n1	-5	0.93
Cn1ncnc1C(=O)NC[C@H]1CC1(C)C	-7	0.7
CN1CCN(CC(C)(C)Nc2nccc3cccnc23)CC1	-7	1.1
CN(C)c1c(F)cc(NC(=O)c2nccnc2N)cc1F	3	-0.4
CC(C)c1nccc(-c2nccn2-c2ccc(S(N)(=O)=O)cc2)n1	-3	0.53
C[C@H](C#N)C(=O)NC1CCC(F)(F)CC1	-9	1.31
COCc1nccc(N[C@H]2CCc3c(OC)cccc32)n1	-18	3.39
O=C(Nc1nc(-c2ccc3c(c2)CCCC3)cs1)[C@@H]1CCCO1	-4	0.55
CO[C@H]1CCC12CCN(Cc1cccnc1)CC2	-7	0.95
C[C@@H](CCc1cccc(F)c1)NC(=O)C(=O)Nc1ccn(C)n1	-11	1.67
Cc1ccc(NC(=O)N(CCN2CCCC2)CC(=O)N(Cc2ccc(F)cc2)Cc2cccs2)cc1C	6	-0.76
Fc1cccc(-c2n[nH]c3c2CN(CC2CCC2)CC3)c1	-3	0.43
Cc1cnn(CC(=O)Nc2ccc3[nH]c(=O)[nH]c3c2)c1	-11	1.79
CN1CCCC1C1CCCN1C(=O)C1CC1c1ccco1 (stereo not drawn)	-7	0.93
CCc1nc2ccccc2n1[C@@H](CC)C(=O)NCCn1cc(C)cn1	5	-0.71
CC(C)[C@]1(C(=O)O)CCN(C(=O)CC(C)(C)C)C1	-12	1.9
O=C1NC2(CCN(Cc3ccccc3)CC2)Nc2cccc(Cl)c21	-3	0.42
Clc1ccc(CNc2ccc3cn[nH]c3c2)cc1Cl	8	-1.18
Cn1ccnc1CN1CCN(C(=O)C2CCC2)[C@H]2CS(=O)(=O)C[C@H]21	6	-0.85
